Paper PMC5892938
The list shows a part of the results. At the low end of the ranking, values are background and their order means little.

Each sequence was assayed against GST-SBP-SLBP (stem-loop binding protein) (UniProt Q14493) (assay: targeted RNA Bind-n-Seq). Conditions: RBNS binding buffer: 25 mM Tris pH 7.5, 150 mM KCl, 3 mM MgCl2, 0.1% Tween, 0.5 mg/mL BSA, 1 mM DTT; 27 nM protein, 750 pM RNA pool; temperature not stated; high values mean tight binding.
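Note: DESeq read counts versus GST-SBP nonspecific binding control pulldown.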

| Sequence | binding signal (log2 fold change) |
| --- | --- |
| GGUCACGUCUCAAUCAACUCAUUUCCCAGGGAAAGCCCUGGUAAUCUCAACAGCUCGCAGUCAAG | 0.334 |
| GGUCACGUCUCAAUCAACUCUACUCCCAGGGAAAACCCUGGUAAACUCAACAGCUCGCAGUCAAG | 0.0113 |
| GGUCACGUCUCAAUCAACUCAUCUCCCAGGGAAACCCCUGGUUAAUUCAACAGCUCGCAGUCAAG | 0.0981 |
| GGUCACGUCUCAAUCAACUCAUCAGAGGGGGGGAAAACCCCUUUACCCUCACUAUCAACAGCUCGCAGUCAAG | -0.0805 |
| GGUCACGUCUCAAUCAACUCAACUUCAGGAGUUUUCUCCUGUAUAUUCAACAGCUCGCAGUCAAG | 0.0898 |
| GGUCACGUCUCAAUCAACUCCUAAGAGGGGGGGAAAACCCCUUUACCCUCAAUCUCAACAGCUCGCAGUCAAG | 0.429 |
| GGUCACGUCUCAAUCAACUCAUCUCCAGGAGUUUCCUCCUGUAUUCUCAACAGCUCGCAGUCAAG | -0.0258 |
| GGUCACGUCUCAAUCAACUCCCAAAGGCUUUUCUUAGAGCCACCCAUCAACAGCUCGCAGUCAAG | 0.496 |
| GGUCACGUCUCAAUCAACUCACUAGAGGGGGGGAAAACCCCUUUGCCCUCAUACUCAACAGCUCGCAGUCAAG | 0.37 |
| GGUCACGUCUCAAUCAACUCUUCUCCCAGGGAAAACCCUGGUUAACUCAACAGCUCGCAGUCAAG | 0.135 |
| GGUCACGUCUCAAUCAACUCAAUUCCAGGAGUUUUCUCCUGUUUACUCAACAGCUCGCAGUCAAG | 0.0544 |
| GGUCACGUCUCAAUCAACUCAUCUUCCAGGGAAACCCCUGGCAAUUUCAACAGCUCGCAGUCAAG | 0.00517 |
| GGUCACGUCUCAAUCAACUCAAUCUCCAGGGAAAGCCCUGGCUAAUUCAACAGCUCGCAGUCAAG | -0.0101 |
| GGUCACGUCUCAAUCAACUCAUCUUCAGGAGUUUGCUCCUGCAUAUUCAACAGCUCGCAGUCAAG | -0.0242 |
| GGUCACGUCUCAAUCAACUCUUUCCCAGGAGUUUACUCCUGUUUACUCAACAGCUCGCAGUCAAG | -0.0102 |
| GGUCACGUCUCAAUCAACUCUUUCCCAGGAGUUUUCUCCUGUUUUUUCAACAGCUCGCAGUCAAG | 0.117 |
| GGUCACGUCUCAAUCAACUCUUCUUCCAGGGAAAGCCCUGGCUUUUUCAACAGCUCGCAGUCAAG | -0.352 |
| GGUCACGUCUCAAUCAACUCAUCGCCAGGAGUUUACUCCUGCAAAUUCAACAGCUCGCAGUCAAG | 0.281 |
| GGUCACGUCUCAAUCAACUCAAUCUCCAGGGAAAUCCCUGGUAAUCUCAACAGCUCGCAGUCAAG | -0.113 |

| Sequence | binding signal (log2 fold change) |
| --- | --- |
| GGUCACGUCUCAAUCAACUCAAUUCCAGGAGUUUGCUCCUGCUUACUCAACAGCUCGCAGUCAAG | -0.0245 |
| GGUCACGUCUCAAUCAACUCUAUCUCAGGAGUUUCCUCCUGCUUACUCAACAGCUCGCAGUCAAG | 0.115 |
| GGUCACGUCUCAAUCAACUCACACGAGGGGGGGAAAACCCCUUUACCCUCACCAUCAACAGCUCGCAGUCAAG | -0.161 |
| GGUCACGUCUCAAUCAACUCAUUCCCAGGAGUUUACUCCUGUUAUUUCAACAGCUCGCAGUCAAG | -0.0683 |
| GGUCACGUCUCAAUCAACUCUAUCUCAGGAGUUUCCUCCUGCAAUCUCAACAGCUCGCAGUCAAG | 0.082 |
| GGUCACGUCUCAAUCAACUCAACUUCCAGGGAAAGCCCUGGCGUAUUCAACAGCUCGCAGUCAAG | 0.0429 |
| GGUCACGUCUCAAUCAACUCCUCUGAGGGGGGGAAAACCCCUUUACCCUCUACAUCAACAGCUCGCAGUCAAG | -0.178 |
| GGUCACGUCUCAAUCAACUCUCUAGAGGGGGGGAAAACCCCUUUACCCUCACUCUCAACAGCUCGCAGUCAAG | -0.265 |
| GGUCACGUCUCAAUCAACUCAAUCGCAGGAGUUUACUCCUGGUUAUUCAACAGCUCGCAGUCAAG | -0.0429 |
| GGUCACGUCUCAAUCAACUCAAUUCCAGGAGUUUUCUCCUGCUAACUCAACAGCUCGCAGUCAAG | 0.0655 |
| GGUCACGUCUCAAUCAACUCUACUCCAGGAGUUUUCUCCUGUAUUCUCAACAGCUCGCAGUCAAG | -0.232 |
| GGUCACGUCUCAAUCAACUCUACUUCCAGGGAAAACCCUGGCAUACUCAACAGCUCGCAGUCAAG | 0.104 |
| GGUCACGUCUCAAUCAACUCAAUCUCCAGGGAAAGCCCUGGUUAACUCAACAGCUCGCAGUCAAG | 0.178 |
| GGUCACGUCUCAAUCAACUCAUUCUCCAGGGAAAACCCUGGUUUACUCAACAGCUCGCAGUCAAG | -0.0116 |
| GGUCACGUCUCAAUCAACUCUUCGUCCAGGGAAAGCCCUGGUUAAUUCAACAGCUCGCAGUCAAG | -0.228 |
| GGUCACGUCUCAAUCAACUCAUUCGAGGGGGGGAAAACCCCUUUACCCUCACUUUCAACAGCUCGCAGUCAAG | -0.036 |
| GGUCACGUCUCAAUCAACUCUACUUCAGGAGUUUCCUCCUGCAUAUUCAACAGCUCGCAGUCAAG | 0.166 |
| GGUCACGUCUCAAUCAACUCAGUCCCAGGAGUUUUCUCCUGCUAUUUCAACAGCUCGCAGUCAAG | -0.147 |
